Laboratory results taken from publication PMC5892938.
This is one part of the list. At the low end of the ranking the order means little.

target: GST-SBP-SLBP (stem-loop binding protein) (UniProt Q14493); assay: targeted RNA Bind-n-Seq; settings: RBNS binding buffer: 25 mM Tris pH 7.5, 150 mM KCl, 3 mM MgCl2, 0.1% Tween, 0.5 mg/mL BSA, 1 mM DTT; 27 nM protein, 750 pM RNA pool; temperature not stated; high values mean tight binding;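 further: DESeq read counts versus GST-SBP nonspecific binding control pulldown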

| Sequence | binding signal (log2 fold change) |
| --- | --- |
| GGUCACGUCUCAAUCAACUCAUACGAGGGGGGGAAAACCCCUUUACCCUCCAUAUCAACAGCUCGCAGUCAAG | 0.156 |
| GGUCACGUCUCAAUCAACUCAACUUCCAGGGAAACCCCUGGCUAUUUCAACAGCUCGCAGUCAAG | 0.119 |
| GGUCACGUCUCAAUCAACUCAUUCGCAGGAGUUUCCUCCUGGUAUCUCAACAGCUCGCAGUCAAG | 0.0215 |
| GGUCACGUCUCAAUCAACUCAUUUCCAGGAGUUUGCUCCUGUAAUUUCAACAGCUCGCAGUCAAG | 0.289 |
| GGUCACGUCUCAAUCAACUCUAUCUCAGGAGUUUCCUCCUGCUUUUUCAACAGCUCGCAGUCAAG | 0.241 |
| GGUCACGUCUCAAUCAACUCUUUUUCCAGGGAAAUCCCUGGCUUACUCAACAGCUCGCAGUCAAG | -0.0473 |
| GGUCACGUCUCAAUCAACUCUUUUCCAGGAGUUUUCUCCUGCAAUUUCAACAGCUCGCAGUCAAG | -0.0511 |
| GGUCACGUCUCAAUCAACUCAUCCCCAGGAGUUUACUCCUGUUUACUCAACAGCUCGCAGUCAAG | 0.244 |
| GGUCACGUCUCAAUCAACUCUAAAGAGGGGGGGAAAACCCCUUUGCCCUCGAUAUCAACAGCUCGCAGUCAAG | -0.0555 |
| GGUCACGUCUCAAUCAACUCAAUGUCAGGAGUUUCCUCCUGUUUUCUCAACAGCUCGCAGUCAAG | 0.0273 |
| GGUCACGUCUCAAUCAACUCUACUUCCAGGGAAAUCCCUGGCAAUUUCAACAGCUCGCAGUCAAG | -0.311 |
| GGUCACGUCUCAAUCAACUCAUAAGAGGGGGGGAAAACCCCUUUACCCUCCAUUUCAACAGCUCGCAGUCAAG | -0.122 |
| GGUCACGUCUCAAUCAACUCAUCCCCAGGAGUUUGCUCCUGUAUACUCAACAGCUCGCAGUCAAG | -0.107 |
| GGUCACGUCUCAAUCAACUCUUCUUCAGGAGUUUUCUCCUGUUAACUCAACAGCUCGCAGUCAAG | 0.0848 |
| GGUCACGUCUCAAUCAACUCUUUCUCCAGGGAAAGCCCUGGCUAAUUCAACAGCUCGCAGUCAAG | 0.131 |
| GGUCACGUCUCAAUCAACUCUUAAGAGGGGGGGAAAACCCCUUUACCCUCCUAUUCAACAGCUCGCAGUCAAG | -0.332 |
| GGUCACGUCUCAAUCAACUCUCUAGAGGGGGGGAAAACCCCUUUGCCCUCAUAUUCAACAGCUCGCAGUCAAG | -0.324 |
| GGUCACGUCUCAAUCAACUCUUCUUCCAGGGAAAGCCCUGGCAAUUUCAACAGCUCGCAGUCAAG | 0.105 |
| GGUCACGUCUCAAUCAACUCACUAGAGGGGGGGAAAACCCCUUUGCCCUCCAUUUCAACAGCUCGCAGUCAAG | 0.0554 |
| GGUCACGUCUCAAUCAACUCAAAAGAGGGGGGGAAAACCCCUUUGCCCUCCAAAUCAACAGCUCGCAGUCAAG | 0.2 |
| GGUCACGUCUCAAUCAACUCUAUCCCCAGGGAAAGCCCUGGCAAUCUCAACAGCUCGCAGUCAAG | -0.0939 |
| GGUCACGUCUCAAUCAACUCUUCUCCCAGGGAAACCCCUGGUAAUCUCAACAGCUCGCAGUCAAG | 0.246 |
| GGUCACGUCUCAAUCAACUCUUCCUCAGGAGUUUUCUCCUGCUAAUUCAACAGCUCGCAGUCAAG | 0.0828 |
| GGUCACGUCUCAAUCAACUCAUUCUCCAGGGAAAUCCCUGGCUUUCUCAACAGCUCGCAGUCAAG | 0.0849 |
| GGUCACGUCUCAAUCAACUCAUCCCCAGGAGUUUCCUCCUGUAAAGUCAACAGCUCGCAGUCAAG | 0.227 |

| Sequence | binding signal (log2 fold change) |
| --- | --- |
| GGUCACGUCUCAAUCAACUCAUCUCCAGGAGUUUACUCCUGUUUACUCAACAGCUCGCAGUCAAG | 0.206 |
| GGUCACGUCUCAAUCAACUCAUAUGAGGGGGGGAAAACCCCUUUACCCUCCAUUUCAACAGCUCGCAGUCAAG | -0.3 |
| GGUCACGUCUCAAUCAACUCUAUCUCCAGGGAAAACCCUGGUUUUUUCAACAGCUCGCAGUCAAG | -0.0223 |
| GGUCACGUCUCAAUCAACUCUUCCCCCAGGGAAAACCCUGGCUUACUCAACAGCUCGCAGUCAAG | 0.128 |
| GGUCACGUCUCAAUCAACUCAUAAGAGGGGGGGAAAACCCCUUUACCCUCACUAUCAACAGCUCGCAGUCAAG | -0.101 |
| GGUCACGUCUCAAUCAACUCUAUCUCCAGGGAAACCCCUGGCAUGUUCAACAGCUCGCAGUCAAG | -0.181 |
| GGUCACGUCUCAAUCAACUCAUCGUCAGGAGUUUCCUCCUGUUAACUCAACAGCUCGCAGUCAAG | 0.0303 |
| GGUCACGUCUCAAUCAACUCUUUCCCCAGGGAAAUCCCUGGUAAAUUCAACAGCUCGCAGUCAAG | -0.139 |
| GGUCACGUCUCAAUCAACUCUUUCCCCAGGGAAAACCCUGGUAUUUUCAACAGCUCGCAGUCAAG | 0.134 |
| GGUCACGUCUCAAUCAACUCAUCCGCAGGAGUUUACUCCUGGUAUUUCAACAGCUCGCAGUCAAG | 0.0873 |
| GGUCACGUCUCAAUCAACUCUUUUCCCAGGGAAACCCCUGGUUAACUCAACAGCUCGCAGUCAAG | -0.106 |
| GGUCACGUCUCAAUCAACUCAGUCCCAGGAGUUUACUCCUGUUUUUUCAACAGCUCGCAGUCAAG | 0.0919 |
| GGUCACGUCUCAAUCAACUCUUCUUCCAGGGAAAACCCUGGUAAAUUCAACAGCUCGCAGUCAAG | 0.0774 |
| GGUCACGUCUCAAUCAACUCUACUUCCAGGGAAAUCCCUGGCUAACUCAACAGCUCGCAGUCAAG | 0.234 |
| GGUCACGUCUCAAUCAACUCAACGGAGGGGGGGAAAACCCCUUUACCCUCAUCCUCAACAGCUCGCAGUCAAG | -0.00288 |
| GGUCACGUCUCAAUCAACUCUUUUCCAGGAGUUUCCUCCUGUUUUCUCAACAGCUCGCAGUCAAG | 0.148 |
| GGUCACGUCUCAAUCAACUCUUUCUCCAGGGAAACCCCUGGUAUUCUCAACAGCUCGCAGUCAAG | -0.0572 |
| GGUCACGUCUCAAUCAACUCAAUCCCAGGAGUUUUCUCCUGUAUAUUCAACAGCUCGCAGUCAAG | 0.139 |
| GGUCACGUCUCAAUCAACUCCUAAGAGGGGGGGAAAACCCCUUUGCCCUCCAUUUCAACAGCUCGCAGUCAAG | 0.0356 |
| GGUCACGUCUCAAUCAACUCUUCUCCCAGGGAAAACCCUGGUUAAUUCAACAGCUCGCAGUCAAG | -0.136 |
| GGUCACGUCUCAAUCAACUCAAUCCCAGGAGUUUGCUCCUGCAUUUUCAACAGCUCGCAGUCAAG | 0.0927 |
| GGUCACGUCUCAAUCAACUCUACUCCCAGGGAAAUCCCUGGUUAUCUCAACAGCUCGCAGUCAAG | -0.0719 |
| GGUCACGUCUCAAUCAACUCUUCUUCCAGGGAAACCCCUGGUAUUCUCAACAGCUCGCAGUCAAG | -0.244 |
| GGUCACGUCUCAAUCAACUCAAUCCCCAGGGAAAUCCCUGGUAUUUUCAACAGCUCGCAGUCAAG | -0.191 |
| GGUCACGUCUCAAUCAACUCAAUCUCCAGGGAAACCCCUGGUAUUUUCAACAGCUCGCAGUCAAG | -0.269 |

| Sequence | binding signal (log2 fold change) |
| --- | --- |
| GGUCACGUCUCAAUCAACUCUUCGUCCAGGGAAAGCCCUGGCUUAUUCAACAGCUCGCAGUCAAG | -0.152 |
| GGUCACGUCUCAAUCAACUCCAAAGAGGGGGGGAAAACCCCUUUACCCUCGUUAUCAACAGCUCGCAGUCAAG | -0.227 |
| GGUCACGUCUCAAUCAACUCCCACGAGGGGGGGAAAACCCCUUUACCCUCCAUUUCAACAGCUCGCAGUCAAG | -0.181 |
| GGUCACGUCUCAAUCAACUCAUUCUCAGGAGUUUACUCCUGUUAUCUCAACAGCUCGCAGUCAAG | -0.0746 |
| GGUCACGUCUCAAUCAACUCAUCUUCAGGAGUUUCCUCCUGCAAAUUCAACAGCUCGCAGUCAAG | 0.0445 |
| GGUCACGUCUCAAUCAACUCAUCCGCAGGAGUUUUCUCCUGGUAUCUCAACAGCUCGCAGUCAAG | 0.102 |
| GGUCACGUCUCAAUCAACUCAAUCUCAGGAGUUUGCUCCUGCAAUGUCAACAGCUCGCAGUCAAG | 0.215 |
| GGUCACGUCUCAAUCAACUCUUCGCCAGGAGUUUUCUCCUGUUAUCUCAACAGCUCGCAGUCAAG | -0.0843 |
| GGUCACGUCUCAAUCAACUCUAUCUCCAGGGAAAUCCCUGGCAAUCUCAACAGCUCGCAGUCAAG | -0.189 |
| GGUCACGUCUCAAUCAACUCUUUCCCCAGGGAAACCCCUGGUAUACUCAACAGCUCGCAGUCAAG | -0.132 |
| GGUCACGUCUCAAUCAACUCUCUAGAGGGGGGGAAAACCCCUUUACCCUCACACUCAACAGCUCGCAGUCAAG | -0.3 |
| GGUCACGUCUCAAUCAACUCUAUUCCCAGGGAAACCCCUGGCAUUCUCAACAGCUCGCAGUCAAG | -0.255 |
| GGUCACGUCUCAAUCAACUCUUUUUCCAGGGAAAUCCCUGGCUUUUUCAACAGCUCGCAGUCAAG | 0.0417 |
| GGUCACGUCUCAAUCAACUCAUCGCCAGGAGUUUGCUCCUGCUUUUUCAACAGCUCGCAGUCAAG | -0.142 |
| GGUCACGUCUCAAUCAACUCUACUCCCAGGGAAACCCCUGGCUUUCUCAACAGCUCGCAGUCAAG | 0.191 |
| GGUCACGUCUCAAUCAACUCAUCUCCCAGGGAAAUCCCUGGCUUACUCAACAGCUCGCAGUCAAG | -0.332 |
| GGUCACGUCUCAAUCAACUCAUCGUCCAGGGAAAUCCCUGGUAAUUUCAACAGCUCGCAGUCAAG | 0.0193 |
| GGUCACGUCUCAAUCAACUCAUUAGAGGGGGGGAAAACCCCUUUACCCUCCCAAUCAACAGCUCGCAGUCAAG | -0.238 |
| GGUCACGUCUCAAUCAACUCAGUCUCCAGGGAAACCCCUGGCUUUCUCAACAGCUCGCAGUCAAG | -0.328 |
| GGUCACGUCUCAAUCAACUCAUCCCCAGGAGUUUGCUCCUGUAAUCUCAACAGCUCGCAGUCAAG | 0.242 |
| GGUCACGUCUCAAUCAACUCAUCGCCAGGAGUUUACUCCUGUAUUCUCAACAGCUCGCAGUCAAG | 0.0949 |
| GGUCACGUCUCAAUCAACUCUUAAGAGGGGGGGAAAACCCCUUUGCCCUCAAUAUCAACAGCUCGCAGUCAAG | -0.235 |
| GGUCACGUCUCAAUCAACUCAGUUUCCAGGGAAAACCCUGGUUUAUUCAACAGCUCGCAGUCAAG | -0.0345 |
| GGUCACGUCUCAAUCAACUCAACUCCAGGAGUUUGCUCCUGUAUACUCAACAGCUCGCAGUCAAG | 0.238 |
